# Results reported in PMC4336329 (PLoS ONE, 2015).
# Among all 310,000 compounds or so, about 14,000 (4.5%) showed an effect of 50% or more. The effect is printed as a negative number. This is one part of the list.
# Target: human ether-à-go-go-related gene (hERG) potassium channel (human, UniProt Q12809)
# Assay: primary screen, population patch clamp on CHO cells stably expressing hERG
# 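Further: peak tail current of the secondary pulse compared with the same well before compound.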
# Sequence of human ether-à-go-go-related gene (hERG) potassium channel (Q12809 whole entry, looked up): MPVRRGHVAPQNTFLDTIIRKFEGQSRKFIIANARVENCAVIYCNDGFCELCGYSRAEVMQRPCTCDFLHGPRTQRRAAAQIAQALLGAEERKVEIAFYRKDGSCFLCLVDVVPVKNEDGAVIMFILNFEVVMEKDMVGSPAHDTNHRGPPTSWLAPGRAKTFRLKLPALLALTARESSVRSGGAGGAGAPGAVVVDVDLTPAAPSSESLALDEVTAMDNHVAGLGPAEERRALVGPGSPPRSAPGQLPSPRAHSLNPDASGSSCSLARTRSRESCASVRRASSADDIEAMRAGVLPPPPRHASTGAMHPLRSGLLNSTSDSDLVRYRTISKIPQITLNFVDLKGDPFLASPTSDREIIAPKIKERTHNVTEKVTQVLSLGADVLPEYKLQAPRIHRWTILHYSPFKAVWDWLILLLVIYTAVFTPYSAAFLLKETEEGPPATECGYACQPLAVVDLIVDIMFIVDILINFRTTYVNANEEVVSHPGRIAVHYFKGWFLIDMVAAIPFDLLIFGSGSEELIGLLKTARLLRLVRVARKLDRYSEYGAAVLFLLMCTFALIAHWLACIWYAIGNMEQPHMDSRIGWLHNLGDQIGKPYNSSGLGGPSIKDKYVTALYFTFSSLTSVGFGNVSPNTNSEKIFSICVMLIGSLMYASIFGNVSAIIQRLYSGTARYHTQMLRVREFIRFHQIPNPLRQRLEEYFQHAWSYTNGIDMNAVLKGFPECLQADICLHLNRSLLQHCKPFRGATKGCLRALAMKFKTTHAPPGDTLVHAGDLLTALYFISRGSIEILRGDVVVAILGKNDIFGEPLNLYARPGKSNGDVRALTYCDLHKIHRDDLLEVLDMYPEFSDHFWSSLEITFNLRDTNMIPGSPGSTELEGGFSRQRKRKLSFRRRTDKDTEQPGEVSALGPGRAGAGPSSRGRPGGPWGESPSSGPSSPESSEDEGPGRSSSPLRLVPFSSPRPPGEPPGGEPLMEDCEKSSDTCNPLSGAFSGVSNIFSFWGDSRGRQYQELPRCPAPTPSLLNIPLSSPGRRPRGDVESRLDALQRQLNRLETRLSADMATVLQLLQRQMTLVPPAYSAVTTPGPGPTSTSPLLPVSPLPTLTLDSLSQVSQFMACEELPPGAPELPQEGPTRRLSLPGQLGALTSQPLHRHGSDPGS
row,Compound,"hERG current change (%, negative = inhibition) at 10uM [%]"
1,CCCc1c(C(=O)N/N=C/c2cccc(OCc3ccc(F)cc3)c2)nnn1-c1nonc1N,5.94
2,Fc1ccccc1CNC(=S)NC1CCCCC1,15.6
3,Cc1ccccc1-n1c(SCC(=O)Nc2ccccc2)nc2nc3c(cc2c1=O)CCCC3,9.25
4,CCSc1nc(-c2cccnc2)ccc1C#N,-35.3
5,O=C(/C=C\c1ccccc1)Nc1nccs1,17.6
6,CCOc1cc2[nH]c(=S)n(CCC(=O)NCc3ccc(OC)cc3)c(=O)c2cc1OCC,10.5
7,Cc1ccccc1-n1nc(C)c2cc(C(=O)N3CCOCC3)sc21,-1.28
8,Cc1c(C(=O)Nc2ccc3c(c2)OCO3)oc2ccccc12,9.56
9,CN(C(=O)CC1C(=O)NCCN1Cc1ccc(F)c(F)c1)C1CCCCC1 (centres unmarked),5.45
10,CCOc1ccc(N2C(=O)C3ON(c4ccccc4)C(c4cccs4)C3C2=O)cc1 (centres unmarked),7.35
11,Cc1cc(-c2nnc(SCC(=O)Nc3ccc(Cl)cn3)n2N)n[nH]1,-10.4
12,Cc1ccc(C)c(NC(=O)c2cc(=O)c3ccccc3o2)c1,-16.4
13,O=C(O)Cc1sc(-c2ccccc2)nc1-c1ccccc1,13.7
14,N#CCC(=O)Nc1ccc(C(=O)OCC(=O)NC(=O)Cc2ccccc2)cc1,13
15,CN(C)S(=O)(=O)c1ccc(C(=O)NCCOc2ccc(F)cc2)cc1,-27.3
16,CC(=O)Nc1ccc(C(=O)OCC(=O)N(Cc2ccccc2)C(C)(C)C)cc1,-8.51
17,Cc1cc(C(F)(F)F)nn1Cc1n[nH]c(=S)n1-c1ccc(F)cc1,14.6
18,CC(C)N1C(=O)CCC1C(=O)NCCc1ccccc1 (centres unmarked),-6.11
19,O=C(CCCCO)CCCCCCCC[C@H]1N[C@H](CO)[C@H](O)[C@@H]1O[C@@H]1O[C@H](CO)[C@@H](O)[C@H](O)[C@H]1O,6.58
20,CN(C(=O)COC(=O)c1cc([N+](=O)[O-])ccc1Cl)c1ccccc1,-19.7
21,Cc1ccc(/C=C/C(=O)Nc2ccncc2)o1,12.8
22,COc1ccc(C2CC(c3ccccc3)=NN2c2ccc(N)cc2)cc1 (centres unmarked),6.71
23,O=C1c2ccccc2C(=O)c2c1ccc1c(=O)n(-c3ccccc3)[nH]c21,7.63

row,Compound,"hERG current change (%, negative = inhibition) at 10uM [%]"
1,O=C(Nc1ccc(C(=O)N2CCCC2)cc1)c1ccccc1[N+](=O)[O-],17.7
2,N#Cc1sc(NCc2ccccn2)nc1Cl,7.54
3,CCc1ccc(S(=O)(=O)Nc2cccc(-c3ccc4nnc(C)n4n3)c2)s1,-11.6
4,O=C(NCCO)C1COc2ccccc2O1 (centres unmarked),15.5
5,Cc1ccc2c(c1)N(Cc1ccc3c(c1)OCO3)C(=O)C(C)O2 (centres unmarked),-13.5
6,COC(=O)C(C)Sc1ncnc2c1nnn2-c1ccc(F)cc1 (centres unmarked),-7.56
7,C/C(=N\N=c1/sc2ccccc2n1C)c1ccc(N2CCOCC2)cc1,18.9
8,Cc1ccc(S(=O)(=O)NCC(c2cccnc2)N(C)C)cc1 (centres unmarked),7.44
9,COc1ccccc1OCC#CCSc1ncccn1,15.2
10,COc1cccc(Cn2nnc(C(=O)Nc3cc(C)ccc3OC)c2N)c1,8.11
11,Cc1ccccc1CSCCC(=O)NCCc1ccccc1,0.596
12,Cc1ccc(S(=O)(=O)Nc2cccc3ncccc23)s1,-18.7
13,CCOc1ccc(NC(=O)c2cccnc2C(=O)O)cc1,8.94
14,CCOc1ccc(N2C(=O)C3CCCN3C2=S)cc1 (centres unmarked),8.27
15,O=C(CN1C(=O)NC2(CCCCC2)C1=O)Nc1ccccc1N1CCCC1,24.2
16,COc1ccc2oc(C(=O)Nc3ccc(C)cn3)c(C)c2c1,0.82
17,Cc1c(NC(=O)c2ccc([N+](=O)[O-])o2)cccc1-c1nc2ncccc2o1,-11.8
18,CC(C)(C)C(=O)/C=c1\[nH]c(=O)/c(=C\c2ccccc2F)s1,12.2
19,COc1cccc(/C=C/C(=O)OCC(=O)NCc2ccco2)c1,-12
20,CC(C)(C)C1c2[nH]c3ccccc3c2CCN1Cc1cccc(OCCO)c1 (centres unmarked),1.16
21,O=C(Nc1nnc(-c2ccc(Br)cc2)o1)c1ccco1,3.75
22,COc1ccc(NC(=O)CCC2CCCCC2)cc1S(=O)(=O)N1CCCCC1,-14.1
23,O=C(NCCc1ccccc1F)C1CCC(=O)N(CCCN2CCCC2=O)C1 (centres unmarked),-7.84

row,Compound,"hERG current change (%, negative = inhibition) at 10uM [%]"
1,COc1cc(CN2CCNC(=O)C2CC(=O)N2CCCO2)cc(OC)c1 (centres unmarked),28.5
2,COc1ccc(N2CC(C(=O)Nc3c4c(nn3-c3ccc(OC)cc3)CS(=O)(=O)C4)CC2=O)cc1 (centres unmarked),21.4
3,O=C(N/N=C/c1c[nH]c2ccc(Br)cc12)c1ccn(Cc2ccc(Cl)cc2)n1,17.9
4,NS(=O)(=O)c1ccc2nc(NC(=O)CS(=O)(=O)c3ccccc3)sc2c1,26.8
5,O=C(O)c1ccccc1C(=O)NNc1ccc(F)cc1,20.4
6,CCOc1ccc(NC(=S)N(CCc2c(C)[nH]c3ccc(C)cc23)Cc2ccncc2)cc1,-3.99
7,Cc1c(C(=O)Nc2ccc(Oc3ccccc3)cc2)sc2nc3n(c(=O)c12)CCC3,0.214
8,Cc1nn(C)c(C)c1C(=O)NN,12.9
9,CCCCn1c(O)c(C=NCCCn2ccnc2)c(=O)[nH]c1=O,9.41
10,O=C(c1ccc([N+](=O)[O-])cc1)N1CCN(c2ncccn2)CC1,-77.8
11,CCOc1ccccc1NC(=O)CSc1nnc(CNC(=O)c2ccco2)o1,-7.77
12,CCOC(=O)c1[nH]c2ccc(OC)cc2c1NC(=S)N1CCN(c2ccccc2OC)CC1,3.9
13,COC(=O)c1c(-c2ccccc2)c(-c2ccccc2)nn(C)c1=O,6.22
14,CCC1(C)NC(=O)N(/N=C/c2cc(OC)c(O)c(OC)c2)C1=O (centres unmarked),20.8
15,COc1ccc(Cl)cc1-c1n[nH]c(=S)n1Cc1ccccc1,15
16,Cc1cc(C(=O)CSc2nc(N)cc(N)n2)c(C)n1C1CC1,22.6
17,COc1ccc(OS(=O)(=O)Cc2ccccc2)cc1,5.11
18,CCN(C(=O)c1ccc2c(c1)OCO2)C1CCS(=O)(=O)C1 (centres unmarked),9.27
19,COC(=O)c1ccc(Cn2cc(Cl)cn2)cc1,5.02
20,CCC1(C)OC(=O)N2CCc3c(C)[nH]c4c(C)ccc(c34)C21C (centres unmarked),-1.17
21,Cc1cc(C(=O)N2CCN(C(=O)c3ccco3)CC2)ccc1[N+](=O)[O-],-64.7
22,CCCCN(C(=O)c1ccc(-c2ccc([N+](=O)[O-])cc2)o1)c1c(N)n(CCCC)c(=O)[nH]c1=O,-9.84
23,CCCOc1ccc(C(=O)N2CCN(c3ccc(NC(=O)CC)cc3Cl)CC2)cc1,-77

row,Compound,"hERG current change (%, negative = inhibition) at 10uM [%]"
1,COc1cc2c(cc1OC)-c1cc(NCc3ccccn3)nc(=O)n1CC2,-0.823
2,Cc1nnc(NC(=O)NC(C)N2C(=O)C3C4C=CC(C4)C3C2=O)s1 (centres unmarked),15.5
3,Cc1ccc(NNC(=O)CCc2ccccc2)c(C)c1,12.9
4,S=c1[nH]nc(-c2ccc(Cl)cc2)n1-c1ccc(Cl)cc1,14.1
5,COc1ccc(S(=O)(=O)NNC(=O)Nc2ccc(F)cc2)cc1,10.4
6,O=C(O)CCC(=O)Nc1ccc(Br)cn1,4.02
7,N#C/C(=C\c1ccc2c(c1)OCCO2)C(=O)Nc1ccc(C(=O)O)cc1,15.9
8,COc1cccc(-c2nnc(SCC(=O)N3CCCC3=O)n2-c2ccccc2)c1,-2.2
9,CC(Sc1ccsc1[N+](=O)[O-])C(=O)NCc1ccco1 (centres unmarked),14.1
10,CC1CCCN(C(=O)c2ccc(NC(=O)CC3SC(N4CCCC4)=NC3=O)cc2)C1 (centres unmarked),-0.727
11,Cc1cc(C)n(CCc2nc(-c3cccs3)cs2)n1,3.48
12,C=C1C(=O)O[C@H]2C[C@@H](C)[C@@H]3C=CC(=O)[C@@]3(C)C[C@H]12,3.59
13,Cc1cc2nc(-c3ccc(=O)[nH]c3)n(Cc3ccccc3)c2cc1C,-35.2
14,Cc1cc([N+](=O)[O-])ccc1NC(=O)c1ccco1,-5.21
15,CCOC(=O)N1CCC(n2c(SCC(=O)NCCc3ccc(S(N)(=O)=O)cc3)nc3ccccc3c2=O)CC1,21
16,CSc1ccccc1C(=O)N1CCCC(CNC(=O)c2ccc(F)cc2)C1 (centres unmarked),15.3
17,Cc1cccc(OCCNC(=O)c2cc(-n3cnnc3)ccc2Cl)c1,-4.41
18,CN1CCN(c2ccc(S(=O)(=O)N3CCCCC3)cc2NC(=O)Cc2c(F)cccc2Cl)CC1,-21.8
19,CCN(CC)C(=O)CSc1nc2cc(OC)c(OC)cc2c(=O)n1Cc1ccc(Cl)cc1,-77
20,CCC1C(C#N)=C(N)Oc2c1c(=O)oc1ccccc21 (centres unmarked),5.71
